Reference: a compilation of properties of binary mixtures (doi:10.1080/00319104.2013.782546)
Some of these densities may be calculated back from excess volumes.

Assay: xn = mol fraction of the nth substance listed
Details: 283.15 K, 101 kPa

CCCCCC[n+]1ccn(C)c1.O=S(=O)([N-]S(=O)(=O)C(F)(F)F)C(F)(F)F + c1ccccc1
mass density (x2 = 0): 1385.9 kg/m3
mass density (x2 = 0.0442): 1380 kg/m3
mass density (x2 = 0.1025): 1372 kg/m3
mass density (x2 = 0.1963): 1357.6 kg/m3
mass density (x2 = 0.299): 1338.4 kg/m3
mass density (x2 = 0.3675): 1323.4 kg/m3
mass density (x2 = 0.3905): 1318 kg/m3
mass density (x2 = 0.5962): 1253.6 kg/m3
mass density (x2 = 0.6486): 1230.5 kg/m3
mass density (x2 = 0.7536): 1170.7 kg/m3
mass density (x2 = 0.8367): 1108.2 kg/m3
mass density (x2 = 0.8706): 1074.7 kg/m3

CCC[n+]1cccc(C)c1.O=S(=O)([N-]S(=O)(=O)C(F)(F)F)C(F)(F)F + c1ccccc1
mass density (x2 = 0): 1461.7 kg/m3
mass density (x2 = 0.0999): 1444.2 kg/m3
mass density (x2 = 0.1999): 1424.1 kg/m3
mass density (x2 = 0.2994): 1400.7 kg/m3
mass density (x2 = 0.3991): 1372.5 kg/m3
mass density (x2 = 0.5139): 1332.6 kg/m3
mass density (x2 = 0.6107): 1288.7 kg/m3
mass density (x2 = 0.7003): 1236.9 kg/m3
mass density (x2 = 0.7273): 1218.3 kg/m3
mass density (x2 = 0.7395): 1209.1 kg/m3
mass density (x2 = 0.7492): 1202.4 kg/m3
mass density (x2 = 0.7847): 1173.1 kg/m3
mass density (x2 = 0.7959): 1163.1 kg/m3

CCOS(=O)(=O)[O-].CC[n+]1cccc(C)c1 + c1ccccc1
mass density (x2 = 0): 1230.7 kg/m3
mass density (x2 = 0.0483): 1224.3 kg/m3
mass density (x2 = 0.1029): 1217.1 kg/m3
mass density (x2 = 0.1981): 1203.4 kg/m3
mass density (x2 = 0.3038): 1184.4 kg/m3
mass density (x2 = 0.4028): 1163.9 kg/m3
mass density (x2 = 0.4979): 1140.5 kg/m3
mass density (x2 = 0.6009): 1111.4 kg/m3

CC[n+]1cccc(C)c1.O=S(=O)([N-]S(=O)(=O)C(F)(F)F)C(F)(F)F + c1ccccc1
mass density (x2 = 0): 1503.1 kg/m3
mass density (x2 = 0.0451): 1494.4 kg/m3
mass density (x2 = 0.0992): 1483.4 kg/m3
mass density (x2 = 0.2018): 1459.8 kg/m3
mass density (x2 = 0.2845): 1438.1 kg/m3
mass density (x2 = 0.3887): 1405.9 kg/m3
mass density (x2 = 0.498): 1364.5 kg/m3
mass density (x2 = 0.5447): 1343.5 kg/m3
mass density (x2 = 0.6413): 1291.9 kg/m3
mass density (x2 = 0.7394): 1224.4 kg/m3
mass density (x2 = 0.7983): 1173.5 kg/m3

CC[n+]1ccn(C)c1.O=S(=O)([N-]S(=O)(=O)C(F)(F)F)C(F)(F)F + c1ccccc1
mass density (x2 = 0.045): 1524.5 kg/m3
mass density (x2 = 0.0962): 1512.9 kg/m3
mass density (x2 = 0.1942): 1487.8 kg/m3
mass density (x2 = 0.4104): 1419.3 kg/m3
mass density (x2 = 0.5024): 1380.9 kg/m3
mass density (x2 = 0.6084): 1325 kg/m3
mass density (x2 = 0.6993): 1262.7 kg/m3
mass density (x2 = 0.7329): 1235.9 kg/m3
